According to paper PMC12136788:
The list shows a part of the results.

B1: chr5:35065091:35066102:-|CDS|ENSG00000113494|control|control|control (ssRNA)
RNA: GGGAGUUCUACAGUCCGACGAUCAAAAUCCUCUCAAACCAUUAAGUCUAGAGAAGAGGGAAAGGCAACCCAGCAGAGGGAGGUAGAAAGCUUCCAUUCUGAGACUGACCAGGAUACGCCCUGGCUGCUGCCCCAGGAGAAAACCAACAGAGGAUUGAGCAUCA
B2: chr1:225845535:225846932:-|three_prime_utr|ENSG00000196187|control|control|control (ssRNA)
RNA: GGGAGUUCUACAGUCCGACGAUCGAACAGGUUGGGAGGUGGCCAGUGCUCCUGCCAGCUGUGCACACAUCUCUGUAUCCCGCUAGAGUUCUGUGUUUUUGUAUCAUGUUGUCAGGGACGCUAGCUGGGUCAGGGUUACCCCAUCAACAGAGGAUUGAGCAUCA
B3: ENSG00000107863:be:win_4401|CDS|ENSG00000107863|bound_else_gene|NA|bound_elsewhere_windowed (ssRNA)
RNA: GGGAGUUCUACAGUCCGACGAUCAAAACAGAAGAUCAUCAUUGCCAAAGAAAACAGCACUAGGAAAGACCCCAGCACGACAAAAGAUGAAAAGAUAUCACUAGGAAAAGAGAGCACGCCUUCUGAAGAACCCUCACCACCACACAACAGAGGAUUGAGCAUCA
B4: chr1:109062613:109062715:-|3pUTR|ENSG00000197780|unk|FALSE|unique (ssRNA)
RNA: GGGAGUUCUACAGUCCGACGAUCAGUUCUGAAUACACAGGUUUUGUGUGUAUUUACUCUAUGUAUUAAAUUAUUAUUGCCCUUAGUUUAAAGUAAGGAUUACAAUUGGAUUUAAGUAGAUCACUGAAUGUUAUUGUUUAUGAACAACAGAGGAUUGAGCAUCA
B5: chr3:127036428:127036535:+|3pUTR|ENSG00000114554|msi1|total|mutant (ssRNA)
RNA: GGGAGUUCUACAGUCCGACGAUCGCGUGUGGCUGGGGCGUGGCCACCACAGAGCACAUGGCUGUGUCCCGGCGCAAGCACUUCCGCAGUAUCUGUUUACAUGCGCAAGGAUCAAGCCGACUACCUGUGCUGUCUACUGGGACACAACAGAGGAUUGAGCAUCA
B6: chr18:46811193:46811294:-|3pUTR|ENSG00000078043|unk|total|mutant (ssRNA)
RNA: GGGAGUUCUACAGUCCGACGAUCUUUUUUUUCAUUUUUUUAAAAUGAUAUCUUACCUGAAACUACAAACGACAAAAGAGAAUCCGAAAUGUUUGAAUUAAAGUGAAGAAGGGUUGGGGGAGAUGGGCCUGAACCCACUUCCUGCAACAGAGGAUUGAGCAUCA
B7: ENSG00000087470:stop:overlap|stop_codon|ENSG00000087470|stop_codon|NA|stop_codon (ssRNA)
RNA: GGGAGUUCUACAGUCCGACGAUCAUAUGGCAACAUCAGAGGCACUUAAAAUUUCAAGAGAGGUAGAUCCAGAUGGAGCCAGCUAGAUAUUAACAACAAGAAGAGUGUAACUGAUUCAAUCCGUGAUGAGUAUGCUUUUCUUCACAACAGAGGAUUGAGCAUCA
B8: chr2:120221238:120221343:-|3pUTR|ENSG00000226479|unk|FALSE|bound_elsewhere (ssRNA)
RNA: GGGAGUUCUACAGUCCGACGAUCAUAUGUUGAAUUCUAGUUCUCUGCAUUACCAUUAUUACGUUAAAGUAUUUUUUAAAGCUUAGGUGUGAAGAUAUGUGUCUAUUGCAGAUGUCCUUGAAAACUGCAUAAAACAGUAUGUGCCAACAGAGGAUUGAGCAUCA
B9: chr5:132696315:132696416:-|3pUTR|ENSG00000131437|msi1|FALSE|unique (ssRNA)
RNA: GGGAGUUCUACAGUCCGACGAUCGUUGUACUACUACUCUUCAAUUGUACUGUGCAGGGAAGUUGGGGGAACAGUUCAUACUAUAGAGAGUUACAGUUUAGAUGUAUGUGUAAAUCGAUUAGCUAUUUAUCCAACUACUGUAUACAACAGAGGAUUGAGCAUCA
B10: ENSG00000198589:be:win_7601|CDS|ENSG00000198589|bound_else_gene|NA|bound_elsewhere_windowed (ssRNA)
RNA: GGGAGUUCUACAGUCCGACGAUCUUGCGGUGAACAAAUGGCACAACCUUCCUGCUCAUCAAGGUGCUGUACAAGACCAGCCAUACCAGCUGCCAGUGGAAAUCGAUCCUCUCAUAGCCAGCAAUACAGGAAUGCACAGGAGGCCAACAGAGGAUUGAGCAUCA
B11: chr10:117284474:117284575:-|CDS|ENSG00000165650|msi1|FALSE|bound_elsewhere (ssRNA)
RNA: GGGAGUUCUACAGUCCGACGAUCAUUGCAUUGUGGUGCAGGGAUCCUUUCAAGUUGGGAGGUCUCAUCUGUUUGGGGCAUGUUAGUUUAAAACUUGAAGAUGUGGCUUUAGGAUGCCUAGCUACAUCAAACACGGAAUACCUUCAACAGAGGAUUGAGCAUCA
B12: chr5:38481646:38481747:-|CDS|ENSG00000113594|unk|total|mutant (ssRNA)
RNA: GGGAGUUCUACAGUCCGACGAUCCAGACCUCAGGCCAAUGUAAAUACAUGGAAUUCCGUGUCUCCAGACUCUCCCCGAUCCACCGACAGCAACAGUGAGAUUGUCUCAUUUGGAAGUCCAUGCUCCAUUAAUUCCCGACAAUUCAACAGAGGAUUGAGCAUCA
B13: chr17:35273046:35273147:+|3pUTR|ENSG00000166750|unk|total|mutant (ssRNA)
RNA: GGGAGUUCUACAGUCCGACGAUCAUUCCUAAGAGCAGAAGACUGCAAAACCGUAAAUAUAUACCCAAAAGGGUCUAAUGGAUCCGUUUUUGGCAUAUCAGCACAUGAUAAUACUAUGAAGCCAUAAAAAAGAGAGAUCUCUAUCAACAGAGGAUUGAGCAUCA
B14: chr11:123627604:123627705:+|3pUTR|ENSG00000023171|unk|FALSE|unique (ssRNA)
RNA: GGGAGUUCUACAGUCCGACGAUCAUUUGGAUCUAUAACUGUACUUUGCCUGGCGCUGUGCGCAAGGUCAGAAAACUUACUGCUAGUACCUAGAAACACACAAGGCUGCCCAGCCAAAUCUUAAUGUAAAGUAGCUAGAGCCAUCAACAGAGGAUUGAGCAUCA

target: MSI1 full-length (mouse, UniProt Q61474 1-362); assay: nsRBNS (natural sequence RNA bind-n-seq); RBNS binding buffer (assumed for nsRBNS): 25 mM Tris pH 7.5, 150 mM KCl, 3 mM MgCl2, 0.01% Triton X-100, 500 ug/ml BSA, 20 U/ml SUPERase-In, 4 C; UNK is unkempt and MSI1 is Musashi-1; names of the RNAs are library labels; protein concentration not given here; high values mean tight binding
Chain of UniProt Q61474 (Q61474 whole entry): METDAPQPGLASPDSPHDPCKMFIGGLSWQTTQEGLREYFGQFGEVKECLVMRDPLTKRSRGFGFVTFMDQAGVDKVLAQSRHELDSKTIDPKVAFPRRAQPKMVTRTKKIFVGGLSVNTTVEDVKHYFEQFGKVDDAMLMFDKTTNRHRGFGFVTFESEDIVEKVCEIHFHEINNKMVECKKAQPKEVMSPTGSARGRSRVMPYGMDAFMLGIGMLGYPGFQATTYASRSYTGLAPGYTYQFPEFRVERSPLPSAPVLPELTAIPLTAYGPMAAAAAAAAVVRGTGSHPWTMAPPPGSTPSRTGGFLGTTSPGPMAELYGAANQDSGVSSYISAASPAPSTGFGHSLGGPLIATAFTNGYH

**Q.** How did the binding signal turn out when B1 was run?
**A.** 0.733 enrichment R

**Q.** For B2, which binding signal is on record?
**A.** 0.671 enrichment R

**Q.** Which binding signal does the source give for B3 here?
**A.** 2.08 enrichment R

**Q.** B4 was tested. Which binding signal did it give?
**A.** 1.17 enrichment R

**Q.** B5 was tested. Which binding signal did it give?
**A.** 0.42 enrichment R

**Q.** Which binding signal does the source give for B6 here?
**A.** 0.32 enrichment R

**Q.** For B7, which binding signal is on record?
**A.** 0.499 enrichment R

**Q.** Which binding signal does the source give for B8 here?
**A.** 1.32 enrichment R

**Q.** Which binding signal does the source give for B9 here?
**A.** 19.9 enrichment R

**Q.** For B10, which binding signal is on record?
**A.** 0.46 enrichment R

**Q.** Which binding signal does the source give for B11 here?
**A.** 0.7 enrichment R

**Q.** For B12, which binding signal is on record?
**A.** 0.459 enrichment R

**Q.** How did the binding signal turn out when B13 was run?
**A.** 0.361 enrichment R

**Q.** For B14, which binding signal is on record?
**A.** 7.21 enrichment R
